# From PubChem BioAssay AID1030 (National Center for Advancing Translational Sciences (NCATS), 2008)
# The whole screen tested about 220,000 compounds, of which about 16,000 (7.3%) were called active. Inconclusive means that the source gave no clear call. Such entries were picked first, then a sample of the others. Calls come from the whole dose curve; as a rule, active = well fitted inhibition curve with a large enough effect (not every such curve was filed as active); inconclusive = small, poorly fitted or top-dose-only effect, or another doubt; inactive = no such curve, though single readings can be large or run the other way. No potency is given beside an inconclusive call; the fits are too rough.
# Target: Aldehyde dehydrogenase 1A1 (Homo sapiens) (UniProt P00352)
# UniProt P00352, sequence (P00352 whole entry, looked up): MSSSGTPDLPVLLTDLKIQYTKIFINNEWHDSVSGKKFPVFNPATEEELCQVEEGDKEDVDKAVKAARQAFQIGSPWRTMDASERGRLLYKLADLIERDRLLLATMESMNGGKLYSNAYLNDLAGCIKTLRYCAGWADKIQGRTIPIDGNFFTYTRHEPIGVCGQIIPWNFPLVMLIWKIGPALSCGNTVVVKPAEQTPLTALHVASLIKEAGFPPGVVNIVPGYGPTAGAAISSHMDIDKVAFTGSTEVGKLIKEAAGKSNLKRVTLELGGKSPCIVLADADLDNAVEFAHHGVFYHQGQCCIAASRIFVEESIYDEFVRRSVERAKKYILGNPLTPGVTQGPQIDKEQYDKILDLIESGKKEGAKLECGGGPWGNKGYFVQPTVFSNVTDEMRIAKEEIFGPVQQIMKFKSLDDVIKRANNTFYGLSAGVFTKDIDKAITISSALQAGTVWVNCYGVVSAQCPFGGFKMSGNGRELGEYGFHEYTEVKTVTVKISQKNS
# Assay: qHTS Assay for Inhibitors of Aldehyde Dehydrogenase 1 (ALDH1A1);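 for activity, negative = inhibition: plate controls were no enzyme wells and a reference inhibitor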
# Conditions: Purified ALDH1A1, NADH fluorescence, propionaldehyde substrate; series mostly up to 75.3 µM
# Potency is the fitted concentration of half-maximal effect; tags give direction and shape of the fitted curve.
SMILES,Potency,"activity, negative = inhibition"
Cc1ncccc1C(=O)N1CCCC(C(=O)c2ccc3c4c(cccc24)CC3)C1 (stereo unspecified),"inconclusive [inhibitor, partial curve]",
COCC(C)n1c(C)cc(C(=O)COC(=O)c2c(NC(C)=O)sc(C)c2C)c1C (stereo unspecified),"inconclusive [inhibitor, single point]",
Cc1ccc(C(c2nnnn2CS(=O)(=O)c2ccc(C)cc2)N2CCCC2)cc1 (stereo unspecified),"inconclusive [inhibitor, single point]",
CS(=O)(=O)c1ccc(Cl)c(NC(=O)COC(=O)CNC(=O)c2ccc(Br)o2)c1,"inconclusive [inhibitor, single point]",
Cc1ccccc1N/N=C1\CCCNC1=O,active: 10 µM,
Cc1ccc(NC(=O)CC(NCC2CCCO2)C(=O)O)cc1C (stereo unspecified),inactive,
Cc1ccc2nc(NC(=O)c3ccc(Cl)s3)sc2c1,"inconclusive [inhibitor, single point]",
COc1ccc(-n2c(=O)c(CCc3ccccc3)nc3cncnc32)cc1,"inconclusive [inhibitor, single point]",
Fc1ccc2nc(Nc3nc4cc5c(cc4s3)OCO5)sc2c1,"inconclusive [inhibitor, single point]",
CC(=O)c1c(C)nc2ccc(Br)cc2c1C(=O)O,"inconclusive [inhibitor, partial curve]",
COc1cccc(C(=O)Nc2cc3c(cc2Br)OCCCO3)c1,"inconclusive [inhibitor, single point]",
Cc1ccc2[nH]c(=O)c(C(c3nnnn3CC3CCCO3)N3CCCc4ccccc43)cc2c1 (stereo unspecified),active: 12.6 µM,
O=C(NC(Cc1c[nH]c2ccccc12)C(=O)O)/C(=C/c1ccco1)NC(=O)c1ccccc1 (stereo unspecified),"inconclusive [inhibitor, single point]",
CN(Cc1nc(-c2ccccn2)no1)S(=O)(=O)c1ccc(Cl)cc1,"inconclusive [inhibitor, single point]",
O=C(C(Sc1ccccc1)c1ccccc1)N1CCN(c2ccccc2F)CC1 (stereo unspecified),"inconclusive [inhibitor, full curve]",
CCN(CC)c1ccc(NC(=S)NCC2CCCO2)cc1 (stereo unspecified),"inconclusive [inhibitor, single point]",
CCOC(=O)c1sc2nc(C)nc(N3CCCCC3C)c2c1C (stereo unspecified),"inconclusive [inhibitor, single point]",
C=CCNC(=S)N1CCN(CCN=Cc2c(C)[nH]n(-c3ccc([N+](=O)[O-])cc3)c2=O)CC1,"inconclusive [inhibitor, single point]",
O=C(CSc1nc2[nH]ncc2c(=O)[nH]1)NCCc1ccccc1,inactive,
COC(=O)NC(=C(Cl)Cl)S(=O)(=O)c1ccccc1,"inconclusive [inhibitor, single point]",
Cc1cccc(NC(=O)NCC(c2ccco2)N2CCCCC2)c1 (stereo unspecified),"inconclusive [inhibitor, single point]",
COc1ccccc1N1CCN(CCCCOc2ccc(F)cc2)CC1,active: 25.1 µM,
N#Cc1ccc(CN2CCC3(CC2)CCN(C(=O)c2ccco2)CC3)cc1,inactive,
FC(F)(F)c1cc(-c2ccco2)nc(NCc2cccs2)n1,active: 8.91 µM,

SMILES,Potency,"activity, negative = inhibition"
CCc1cc2c(=O)n(CC)c(SC(C)C(=O)Nc3c(C)n(C)n(-c4ccccc4)c3=O)nc2s1 (stereo unspecified),"inconclusive [inhibitor, single point]",
CCCCNc1cc(C)nc(N2CCOCC2)n1,"inconclusive [inhibitor, single point]",
Cn1c(=O)c(C(=O)c2ccccc2)nc2ccccc21,inactive,
Cc1cccc(-c2nsc(SCC(=O)Nc3cc(C)on3)n2)c1,"inconclusive [inhibitor, single point]",
COc1ccccc1N1CCN(C(=O)CSc2nnc(-c3ccoc3C)o2)CC1,active: 1.58 µM,
COc1c2ccc(C(=O)NCCCCc3ccccc3)cc2nn1C,"inconclusive [inhibitor, partial curve]",
Nc1nc(SCC(=O)Nc2ccc(Cl)cc2)[nH]c(=O)c1-c1ccccc1,"inconclusive [inhibitor, single point]",
CCCc1[nH]n(-c2nc3ccccc3s2)c(=O)c1C=NCCCN(CC)CC,inactive,
Cc1ccc(N=Cc2ccc[nH]2)c(O)c1,"inconclusive [inhibitor, single point]",
CN(C)c1ccc(NC(=S)NC(=O)/C=C/c2ccco2)cc1,inactive,
CCN(CC)S(=O)(=O)c1cc(C(=O)Nc2ccccc2[N+](=O)[O-])ccc1Cl,inactive,
CCc1ccc(-c2cn(C3CCCCC3)c(=S)[nH]2)cc1,"inconclusive [inhibitor, single point]",
COc1ccc2[nH]cc(CCNc3nc(-c4ccc(N(C)C)cc4)nc4ccccc34)c2c1,"inconclusive [inhibitor, partial curve]",
COc1ccc(-c2nnc(N)s2)cc1,"inconclusive [inhibitor, single point]",
CCN(CC)CC(=O)Nc1sc2c(c1C(=O)c1ccccc1C)CCC2,inactive,
O=C(c1ccc(F)cc1)C(CCCCCC(CN1CCOCC1)C(=O)c1ccc(F)cc1)CN1CCOCC1 (stereo unspecified),"inconclusive [inhibitor, single point]",
CCCCC(=O)Nc1cc(N(C)C)nc2ccccc12,"inconclusive [inhibitor, partial curve]",
CN(C)c1ccc(CNc2ccc3c(c2)ncn3C)cc1,"inconclusive [inhibitor, single point]",
Cc1ccc(C(=O)NC(=S)Nc2ccc3[nH]c(=O)[nH]c3c2)cc1C,"inconclusive [inhibitor, single point]",
CC(=O)NCCCc1nc2ccccc2n1Cc1c(F)cccc1Cl,"inconclusive [inhibitor, single point]",
O=C(/C=C/c1cccc([N+](=O)[O-])c1)NCc1ccccc1,"inconclusive [inhibitor, single point]",
NC(=O)C1(N2CCCCC2)CCN(C(=O)NC2CCCCC2)CC1,inactive,
COc1ccccc1CNc1cc(-c2ccoc2)ncn1,"inconclusive [inhibitor, single point]",
COc1cccc2cc(-c3ccnc(N)n3)oc12,"inconclusive [inhibitor, partial curve]",

SMILES,Potency,"activity, negative = inhibition"
COc1ccccc1CC(=O)NNC(=O)c1cccs1,inactive,
Cc1cc(F)ccc1S(=O)(=O)Nc1ccccc1C(=O)Nc1ncn[nH]1,"inconclusive [inhibitor, partial curve]",
Cc1sc2ncnc(Nc3ccc(N4CCOCC4)cc3)c2c1-c1ccccc1,"inconclusive [inhibitor, single point]",
CC(C)(C)C(=O)NC(=S)Nc1ccccc1C(N)=O,"inconclusive [inhibitor, single point]",
CCOC(=O)N1CCN(C(=O)C2CCCN(Cc3nc(-c4ccc(Cl)cc4)oc3C)C2)CC1 (stereo unspecified),"inconclusive [inhibitor, single point]",
CC(C)Nc1nnc(SCC(=O)NCc2ccc3c(c2)OCO3)s1,active: 17.8 µM,
CCOC(=O)N1CCN(S(=O)(=O)c2cc(OCC)ccc2OCC)CC1,inactive,
COc1cc(OC)cc(C(=O)Nc2ccc([N+](=O)[O-])cn2)c1,inactive,
CCOC(=O)c1ccc(NC(=S)NC2CCCC2)cc1,inactive,
CCOC(=O)C1=C(C)NC(=O)NC1c1ccco1 (stereo unspecified),inactive,
COCCn1c(=S)[nH]c2cc(C(=O)NCCc3ccc(OC)c(OC)c3)ccc2c1=O,inactive,
COc1cccc(CSc2nc3ccccc3cc2C=O)c1,"inconclusive [inhibitor, partial curve]",
Cc1ccc(-c2[nH]c3ccccc3c2SCCNC(=O)c2ccc(S(=O)(=O)N3CCOCC3)cc2)cc1,inactive,
COC(=O)C(C)c1ccc(C(=O)c2cccs2)cc1 (stereo unspecified),inactive,
COc1ccc(CC(=O)NCC(=O)N/N=C/c2ccco2)cc1,"inconclusive [inhibitor, single point]",
O=C(O)C1Cc2ccccc2CN1C(=O)CSc1nnc2ccccn12 (stereo unspecified),"inconclusive [inhibitor, partial curve]",
COc1ccc(O[C@H]2C=C[C@@H](c3ccccc3)O[C@H]2COC(=O)CC/C(C)=N\O[C@@H](C)c2cn([C@H](CO)Cc3ccccc3)nn2)cc1,,inactive: 3.52% [at 13.5 µM]
CCS(=O)(=O)c1ccc(-c2csc(-c3ccc(Cl)cc3)n2)c(Cl)c1Cl,"inconclusive [inhibitor, single point]",
COc1ccc(C(=O)Nc2ccccc2-c2ccccc2)cc1Cl,"inconclusive [inhibitor, single point]",
CC1=CN2C(=N)/C(=C/c3cn(CCCOc4ccccc4C)c4ccccc34)C(=O)N=C2S1,"inconclusive [inhibitor, partial curve, poor fit]",
CCOC(=O)c1cc(=O)n(-c2ccc(Cl)cc2C)[nH]1,"inconclusive [inhibitor, single point]",
COc1ccccc1C1C2=C(N=c3s/c(=C/c4cccc(OCC(=O)O)c4)c(=O)n31)c1ccccc1CC2 (stereo unspecified),"inconclusive [inhibitor, single point]",
Cc1ccc(NC(=O)CS(=O)CC(=O)Nc2ccc3c(c2)OCO3)cc1Cl (stereo unspecified),"inconclusive [inhibitor, partial curve]",
